# Measurements taken from PubChem BioAssay (Tox21).
# “And” between values parts separate entries of the source, which are not always exact repeats. Equal entries are not always repeated. The shares of active, inactive and inconclusive entries below differ from those in the screen. For some assays here: Potencies of inconclusive entries are doubtful fits and often do not repeat. Some compounds were tested as several samples or in several runs, with calls that do not always agree. The source made the active and inactive calls. Unless noted, calls follow the shape of the dose curve; as a rule, active = well fitted curve in the direction sought with a large enough effect in the repeat runs; inconclusive = weak or mixed curves; inactive = no such curve, though single readings can be large; an effect the other way counts as inactive or inconclusive.
# Experiments:
# [1] = qHTS assay to identify small molecule agonists of the hypoxia (HIF-1) signaling pathway (AID 1224846; active = well fitted activation curve with a large enough effect in the signal ratio in the repeat runs, not every such curve was filed as active; inconclusive = weak or mixed curves; the % refers to the signal ratio; also: potency is read from the fitted curve at half-maximal effect; as to activation: % is scaled to controls: 0 for no effect and ±100 for the full control effect); details: HRE-bla ME-180 cells, beta-lactamase ratio, 17 h; activation: at 76.8 µM (top of the series) unless noted
# In short: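 Reporter induction in HRE-bla ME-180 cells is taken as agonism: cells sit 5 hrs after plating, receive compounds or DMSO only, incubate 17 hrs at 37C under 5% CO2, and are loaded with CCF4-AM for beta-lactamase FRET measurement.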
# [2] = qHTS RealTime-Glo MT Cell Viability Assay in HepG2 cells - 24 hour (AID 1224867); also: nearly all actives have a fitted effect of over 50% in size; also: potency is read from the fitted curve at half-maximal effect
# In short: (§1)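 Compound treatment began 5 h after plating HepG2 cells (600/well) with NanoLuc luciferase and prosubstrate. Plates stayed at 37 C for 40 h; luminescence was captured at six time points, 0 h through 40 h.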
# [3] = qHTS RealTime-Glo MT Cell Viability Assay in HEK293 cells - 32 hour (AID 1224868); also: potency is read from the fitted curve at half-maximal effect; nearly all actives have a fitted effect of over 50% in size
# In short: (§2)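 Quantitative high-throughput screen of the Tox21 10K library in HEK293: cells and RealTime-Glo reagents plated together, compound added at 5 h, luminescence monitored through 40 h at 37 C.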
# [4] = qHTS RealTime-Glo MT Cell Viability Assay in HepG2 cells - 40 hour (AID 1224870); also: potency is read from the fitted curve at half-maximal effect; nearly all actives have a fitted effect of over 50% in size
# In short: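 HepG2 cells (600/well) mixed with RealTime-Glo MT reagent, settled 5 h at 37 C/5% CO2 before compound addition. Nonlytic NanoLuc luminescence from viable-cell prosubstrate reduction read repeatedly during 40 h treatment at 37 C.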
# [5] = A CellTox Green Cytotoxicity Assay to monitor cytotoxicity in HepG2 cells - 16 hour (AID 1224876); also: potency is read from the fitted curve at half-maximal effect; nearly all actives have a fitted effect of over 45% in size
# In short: (§3)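 Measurements at 0, 8, 16, 24, 32 and 40 h of treatment captured CellTox Green fluorescence in HepG2 cells that had been co-plated with reagent and preincubated 5 h at 37 C/5% CO2.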
# [6] = A CellTox Green Cytotoxicity Assay to monitor cytotoxicity in HepG2 cells - 24 hour (AID 1224878); also: potency is read from the fitted curve at half-maximal effect; nearly all actives have a fitted effect of over 45% in size
# In short: as §3
# [7] = qHTS assay to identify small molecule agonists of the estrogen related receptor (ERR) signaling pathway from Tox21 library (AID 1224849; calls by dose curve; also: % is scaled to controls: 0 for no effect and ±100 for the full control effect; nearly all actives have a fitted effect of over 15% in size); details: ERR reporter cell line, ONE-Glo luciferase, 18 h; at 92.4 µM (top of the series)
# In short: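 Tox21 compounds tested for ERR agonism in an NTP reporter cell line: 18 h treatment at 37 C, then ONE-Glo luminescence.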
# [8] = qHTS RealTime-Glo MT Cell Viability Assay in HEK293 cells - 16 hour (AID 1224872); also: potency is read from the fitted curve at half-maximal effect; nearly all actives have a fitted effect of over 50% in size
# In short: as §2
# [9] = qHTS RealTime-Glo MT Cell Viability Assay in HEK293 cells - 40 hour (AID 1224874); details: RealTime-Glo luminescence; max response: stronger effect = lower value
# In short: (§4)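 HEK293 + NanoLuc + prosubstrate, 600 cells/well; 5 h, 37 C/5% CO2; compound 23 nL in DMSO by pintool; 37 C; luminescence read at 0, 8, 16, 24, 32 and 40 h time points.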
# [10] = A CellTox Green Cytotoxicity Assay to monitor cytotoxicity in HepG2 cells - 40 hour (AID 1224879); also: potency is read from the fitted curve at half-maximal effect; nearly all actives have a fitted effect of over 40% in size
# In short: as §3
# [11] = A CellTox Green Cytotoxicity Assay to monitor cytotoxicity in HEK293 cells - 40 hour (AID 1224871); also: potency is read from the fitted curve at half-maximal effect; nearly all actives have a fitted effect of over 45% in size
# In short: (§5)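 Tox21 screen in HEK293: membrane-impermeant cyanine dye fluoresces on binding dead-cell DNA; compound pinned 5 h post-seeding, plates held at 37 C, signal read repeatedly through 40 h.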
# [12] = A CellTox Green Cytotoxicity Assay to monitor cytotoxicity in HEK293 cells - 32 hour (AID 1224881); also: potency is read from the fitted curve at half-maximal effect; nearly all actives have a fitted effect of over 40% in size
# In short: as §5
# [13] = qHTS RealTime-Glo MT Cell Viability Assay in HepG2 cells - 32 hour (AID 1224877); also: potency is read from the fitted curve at half-maximal effect; nearly all actives have a fitted effect of over 55% in size
# In short: as §1
# [14] = qHTS RealTime-Glo MT Cell Viability Assay in HEK293 cells - 0 hour (AID 1224880); also: top concentration of the series differs between compounds; % is scaled to controls: 0 for no effect and ±100 for the full control effect; nearly all actives have a fitted effect of over 45% in size
# In short: as §4
# [15] = qHTS assay to identify small molecule agonists of H2AX - cell viability counter screen (AID 1224847; calls by dose curve; also: potency is read from the fitted curve at half-maximal effect; nearly all actives have a fitted effect of over 30% in size)
# In short: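 Counter-screen for viability: CellTiter-Glo ATP luminescence read after 3 h compound treatment (15-point titration, 0.76% DMSO final) of CHO-K1 cells at 37C, with 30 min room-temperature reagent incubation.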
# [16] = qHTS assay to identify small molecule antagonists of the estrogen related receptor (ERR) signaling pathway from Tox21 library (AID 1224848)
# In short: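 Quantitative high-throughput format: ERR reporter cells (2,000/well) pre-incubated 6 h, treated 18 h at 37 C with compounds in DMSO alongside positive and negative controls, then read by ONE-Glo luminescence.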
# [17] = A CellTox Green Cytotoxicity Assay to monitor cytotoxicity in HEK293 cells - 24 hour (AID 1224875)
# In short: as §5
# Tags tell the direction and shape of the fitted curve or compound fluorescence and quenching.
smiles,measurement,setting,value
CCCCCCCCCCCCCCCCCC[N+](C)(C)C,Potency,[1],"inconclusive: 43.8 µM [falling, partial curve]"
same,Potency,[2],"inconclusive: 55.1 µM [falling, single point]"
same,Potency,[3],active: 7.79 µM
same,Potency,[4],"inconclusive: 55.1 µM [falling, single point]"
same,Potency,[5],"inconclusive: 55.1 µM [activator, single point]"
same,Potency,[6],"inconclusive: 55.1 µM [activator, single point]"
CCC(C)OC(=O)c1ccc(O)cc1 (centres undefined),Potency,[1],inactive
same,"activity change, positive = activation",[7],active: 6.7%
same,Potency,[3],"inconclusive: 49.3 µM [cytotoxic, partial curve] and inconclusive: 43.6 µM [cytotoxic, partial curve]"
same,Potency,[8],"inconclusive: 49.3 µM [cytotoxic, partial curve] and inconclusive: 43.6 µM [cytotoxic, partial curve, poor fit]"
same,Potency,[9],"inconclusive: 49.3 µM [cytotoxic, partial curve] and inconclusive: 43.6 µM [cytotoxic, partial curve]"
same,Potency,[5],"inconclusive: 54.9 µM [activator, single point]"
same,Potency,[6],"inconclusive: 62 µM [activator, partial curve, poor fit] and inconclusive: 54.9 µM [activator, single point]"
same,Potency,[10],"inconclusive: 55.3 µM [activator, partial curve, poor fit] and inconclusive: 54.9 µM [activator, single point]"
CCCCCCCOC(=O)c1ccc(O)cc1,Potency,[1],inconclusive: 55 µM and inconclusive: 54.9 µM [single point]
same,Potency,[2],inactive
same,Potency,[11],active: 24.5 µM
same,Potency,[6],"inconclusive: 55 µM [activator, single point] and active: 24.5 µM"
same,Potency,[10],"inconclusive: 55 µM [activator, single point]"
same,Potency,[12],"inconclusive: 21.9 µM [activator, partial curve, poor fit]"
O=C(CCCCCCCCc1cccnc1)N1CCC(C=C(c2ccccc2)c2ccccc2)CC1,Potency,[1],"inconclusive: 15.5 µM [falling, full curve]"
same,Potency,[2],"inconclusive: 49 µM [falling, partial curve]"
same,Potency,[3],active: 21.9 µM
same,Potency,[4],"inconclusive: 54.9 µM [falling, single point]"
same,Potency,[11],"inconclusive: 54.9 µM [activator, single point]"
same,Potency,[8],active: 21.9 µM
same,Potency,[9],active: 21.9 µM
same,Potency,[13],"inconclusive: 54.9 µM [cytotoxic, single point]"
same,Potency,[10],"inconclusive: 54.9 µM [activator, single point]"
same,Potency,[14],inactive
CC(C)Oc1ccc2c(=O)c(-c3ccccc3)coc2c1,Potency,[15],"inconclusive: 39.1 µM [cytotoxic, partial curve, poor fit]"
same,Potency,[16],inactive
same,Potency,[3],"inconclusive: 9.52 µM [cytotoxic, partial curve] and inconclusive: 477 nM [cytotoxic, full curve, poor fit]"
same,Potency,[8],"inconclusive: 5.35 µM [cytotoxic, full curve] and inconclusive: 19 µM [cytotoxic, partial curve, poor fit]"
same,Potency,[9],"inconclusive: 8.49 µM [cytotoxic, partial curve] and inconclusive: 477 nM [cytotoxic, full curve, poor fit]"
CC(CN1c2ccccc2Sc2ccccc21)N(C)C (centres undefined),Potency,[15],"inconclusive: 114 µM [cytotoxic] and inconclusive: 113 µM [cytotoxic, partial curve] and inconclusive: 8.75 µM [cytotoxic, partial curve]"
same,Potency,[3],active: 39.3 µM and active: 43.6 µM and active: 6.01 µM
same,Potency,[4],"inconclusive: 54.9 µM [falling, single point]"
same,Potency,[11],"inconclusive: 55.5 µM [activator, single point]"
same,Potency,[8],"active: 39.3 µM and active: 30.9 µM and inconclusive: 6.01 µM [cytotoxic, full curve]"
same,Potency,[17],"inconclusive: 55.5 µM [activator, single point]"
same,Potency,[5],"active: 43.6 µM and inconclusive: 21.3 µM [activator, partial curve]"
same,Potency,[6],"inconclusive: 55.5 µM [activator, single point] and active: 49 µM and active: 23.9 µM"
same,Potency,[12],"inconclusive: 55.5 µM [activator, single point]"
